Sequences with one replicate were seen in a single cluster, so their values are uncertain.
System: ATP
Experiment: switch fluorescence ratio, 500 uM ATP over buffer (Cy3 cluster intensity, sum of 5 cycles each) (fold (ratio)); higher = stronger signal-on switching upon ATP binding; sequences stand for … in TCGTCGGCAGCGTCAGATGTGTATAAGAGACAGTTTTTTTTTTTTTTTTTTTTTTTTT…TC
Details: aptamer strand: ATP DNA aptamer (quencher-CACCTGGGGGAGTATTGCGGAGGAAGG + anchor), 100 nM annealed; ATP concentration: 500 uM; one replicate
Procedure, shortened: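 Cy3-labelled switching-strand clusters on a modified Illumina MiSeq flow-cell were annealed to 100 nM quencher-labelled ATP aptamer and imaged first in selection buffer, then after 15 min with 500 uM ATP at 22 °C. NaOH stripping and re-annealing separated each of five buffer/ATP cycles, and clusters outside 100-1000 RFU were excluded. The fluorescence ratio sums target-cycle Cy3 intensity over buffer-cycle Cy3 intensity per cluster and averages it per switch-domain sequence.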
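Further: ATP exposure 15 min at 22 °C before imaging.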

| Sequence | switch fluorescence ratio |
| --- | --- |
| CCTCTAGGGG | 1.41 |
| TTGATGCTTT | 0.995 |
| AGCCATTCTT | 1.03 |
| GGAGCGCGAT | 1.04 |
| GTGAGTAGCC | 0.999 |
| CCGATTTTAA | 1.31 |
| TACGCTCGAA | 1.01 |
| TGCATATAGG | 1.01 |
| TAGCTCCCGA | 1.07 |
| CCCCTTACAA | 1.03 |
| CCCGGGGCTT | 1.11 |
| AGAATATAGT | 0.983 |
| AATTCTTGCG | 0.975 |
| AAAGGGAGAC | 0.991 |
| TCCCATTCGA | 0.972 |
| GCTAATCCTG | 1.03 |
| CCGGATTTGT | 1.05 |
| GGACTTTGCT | 1.01 |
| TTGGGATCTT | 1.02 |
| GTTCTAGCTA | 1.05 |
| TCCGATATGA | 0.988 |
| GGATAAACAT | 1.02 |
| CGACATTTCT | 1.05 |
| CAATTCCGTT | 0.999 |
| ATTGACGCGC | 1.01 |
| TCTGCGGACT | 1.11 |

| Sequence | switch fluorescence ratio |
| --- | --- |
| AATTTAGCTT | 1.05 |
| TGAAGGCCAT | 1.01 |
| CGGCTCATTC | 1.05 |
| CTCTTAGATA | 0.956 |
| AATTACCCAC | 1.39 |
| ATTTCTTCTC | 1.05 |
| AAGAAAGATT | 1.12 |
| TCCAGAGACG | 0.996 |
| TGCCGATCTA | 0.988 |
| TTGTTGAAC | 0.933 |
| TCTCCTGTGT | 1.04 |
| CGGCCGTGCT | 0.971 |
| GTTGACCGGG | 1.01 |
| GTTCCTACTC | 1.01 |
| TAGAAAGTC | 0.987 |
| ACAGAATTGA | 0.977 |
| AACTGAGCAC | 1.1 |
| TTTTGTCTGA | 1 |
| TAAACTTTAA | 1.08 |
| GATTTTGAGT | 0.959 |
| GGAATGTAGA | 0.994 |
| GTCACTCGTA | 1.05 |
| TACTCTACGG | 1.5 |
| TTCACGTAAC | 1.56 |
| CGCAAAGTTT | 0.992 |
| ACAGAGGAAC | 0.99 |

| Sequence | switch fluorescence ratio |
| --- | --- |
| CAATTGGCTC | 0.927 |
| CACGTCTAGT | 0.997 |
| TACCTAAAAT | 0.984 |
| GTGCTAGTTC | 1.05 |
| AGCCTCTTG | 0.974 |
| CGAGCTGTGG | 1.06 |
| GTGAGCACTC | 1.07 |
| TATGGTTGA | 0.963 |
| TTTAACACTT | 0.987 |
| GGAATCACGG | 1.01 |
| CGTCTGAGGG | 0.972 |
| GTTGCGCCCG | 1.02 |
| GAAGCCCTTA | 0.992 |
| ATTGGTAGGT | 0.998 |
| ATTAAACAAT | 1.01 |
| TATACCTTCG | 2.24 |
| TTGACTGATA | 1.02 |
| CAATTGTAG | 0.987 |
| AGGCAAATCC | 1.03 |
| GTTCTTGGGT | 0.966 |
| CTACAAATCG | 1.08 |
| ATCTCCCTAG | 1.13 |
| GGAAAAACAC | 1.05 |
| CGTGACTTCC | 2.03 |

— the supplement of paper PMC10126150
